Laboratory results taken from the BET-seq Pho4 binding data (Le et al. 2018).
This is one part of the list. Values were computed here from the reads of four pooled replicates and scatter widely.

Target: T1, Pho4 (S. cerevisiae) (UniProt P07270)
T1 sequence: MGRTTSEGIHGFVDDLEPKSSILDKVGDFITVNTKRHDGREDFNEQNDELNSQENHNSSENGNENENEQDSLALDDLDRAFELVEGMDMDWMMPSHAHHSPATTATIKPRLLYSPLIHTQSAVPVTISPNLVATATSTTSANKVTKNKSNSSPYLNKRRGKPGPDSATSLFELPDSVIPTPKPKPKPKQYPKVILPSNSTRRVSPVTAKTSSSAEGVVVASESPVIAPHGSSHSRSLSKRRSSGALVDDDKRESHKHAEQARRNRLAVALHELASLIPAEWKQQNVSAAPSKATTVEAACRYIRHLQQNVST
Assay: relative binding free energy (BET-seq); higher = weaker binding
Details: reference: library average

Sequence | relative binding free energy [kcal/mol]
GGGCACACGTGAGTAG | 0.28
GGTGGCACGTGATGGT | 0.12
TCAGTCACGTGTCGGG | 0.17
GGATGCACGTGAGCGG | 0.24
AGGAACACGTGTATAT | 0.09
GGGCGCACGTGTTCTT | 0.07
CGGGGCACGTGTGCTG | -0.12
CGTGTCACGTGTCTGT | 0.11
TTGAGCACGTGTGCGT | -0.05
AGGAACACGTGGGCGG | -0.04
TAGAACACGTGATTGG | 0.09
ATTGGCACGTGTCGCG | -0.05
ACTTTCACGTGTTAGG | 0.16
TTATGCACGTGCTATG | -0.24
TCGGGCACGTGGCGGA | -0.23
GGTTACACGTGCGTAT | 0.06
GGTTTCACGTGATGGC | 0.58
AATTACACGTGGATTG | 0.24
AGCTTCACGTGTTTGA | 0.15
CTTGGCACGTGCAGTA | 0
TGTCACACGTGGGATT | -0.08
AGTCACACGTGGGTAT | -0.06
TGGATCACGTGCGTTG | 0.13

Sequence | relative binding free energy [kcal/mol]
TTGCGCACGTGTGGTG | -0.16
GAATACACGTGGGGTT | -0.02
AGCGACACGTGGGTGT | -0.22
AGTGGCACGTGTCAGG | -0.21
TAGCGCACGTGATGTG | -0.06
TGCTTCACGTGCATTT | 0.22
AACAACACGTGGTTGT | 0.04
ATGATCACGTGGTGTT | 0.11
CACGGCACGTGGTGGG | -0.2
TGAGACACGTGTTTTG | 0.11
TTGGACACGTGTGTCT | 0.11
TCATGCACGTGTAGAG | 0.18
GGTATCACGTGGGAAT | 0.08
AGGCGCACGTGGTATG | -0.16
TTCTTCACGTGATCGT | 0.21
GGAAACACGTGGGGAG | -0.12
TGTCTCACGTGGGTTT | 0.17
AGGGCCACGTGGTGAA | -0.26
GAGCTCACGTGGGTTT | 0.1
GGGCGCACGTGTGGTT | -0.12
TTGCTCACGTGTTTGC | 0.21
GTTTGCACGTGGCGGA | -0.07
CTATACACGTGTAGGG | 0.14

Sequence | relative binding free energy [kcal/mol]
AGGAGCACGTGAGGTA | 0.2
GCTTCCACGTGTTGGG | 0.12
GCAAGCACGTGGGGGG | -0.17
AGGGGCACGTGGGCGA | -0.23
TGGCTCACGTGTTGCA | 0.28
TATTTCACGTGCTTGC | 0.24
GGATTCACGTGTGAAG | 0.39
ATTGTCACGTGAGCGA | 0.16
AATTGCACGTGTGCGA | -0.04
TTGGACACGTGTAAGA | 0.15
ATTATCACGTGGATTG | 0.12
TTTGGCACGTGCCAGG | -0.12
TGGTACACGTGAGGTC | 0.42
TATTGCACGTGGTTGA | 0.02
TGGTTCACGTGAAAGT | 0.27
TTCTTCACGTGTATAT | 0.33
GAGGGCACGTGGGATT | -0.14
AATCCCACGTGTTGGT | 0.06
ATGTGCACGTGGGTTG | -0.08
AGTATCACGTGGGTGG | -0.02
TGTGTCACGTGGGAGT | -0.01
TGGGACACGTGCTGGC | -0.02
GTCATCACGTGTTGAG | 0.23

Sequence | relative binding free energy [kcal/mol]
AGTGACACGTGCAGGT | -0.08
TTTAGCACGTGCGTTA | -0.13
CTGGGCACGTGCGGCG | -0.1
GTGGACACGTGTGTAT | 0.18
ATTGTCACGTGCATTG | -0.03
TTGGACACGTGAGGTG | 0.27
AGGTACACGTGTTGCG | 0.02
AGTAGCACGTGTTCAA | 0.06
GGGGACACGTGAAGTG | 0.15
TTGAGCACGTGCTTTG | -0.15
GTATTCACGTGATGAA | 0.27
ATGGCCACGTGAGGGA | 0.04
TACGACACGTGAGGGG | 0.2
TGGAACACGTGGAAAG | 0.31
CGGTGCACGTGATAAG | 0.04
TTCAGCACGTGGGAAT | -0.18
ATGTCCACGTGTGGGT | 0.05
TTATGCACGTGCGATG | -0.04
ATAATCACGTGGTTGA | 0.2
AAAATCACGTGAGCGG | 0.56
TGTCTCACGTGTTAGT | 0.13
TGGGACACGTGTCCGG | -0.04
TCGTGCACGTGGGAGG | -0.12

Sequence | relative binding free energy [kcal/mol]
TTTTTCACGTGATTCA | 0.31
ATTTTCACGTGGCAGG | 0.19
ATTTTCACGTGTGCAG | 0.2
ATTGCCACGTGGGTTC | -0.18
CTGTTCACGTGAAGGT | 0.36
ATCGCCACGTGGGTGG | -0.26
GTGGGCACGTGAAGGC | 0.31
CGGGGCACGTGGCGGT | -0.2
CAGTGCACGTGAGGTG | 0.16
TACGTCACGTGCTGTG | 0.11
TTGTTCACGTGCCATG | 0.24
TTAGTCACGTGGTGAG | -0.02
TTGGTCACGTGTCTTC | 0.13
TCAGGCACGTGGGTTT | -0.1
TTCGACACGTGTATGG | 0.04
TGGGGCACGTGATCAG | -0.02
AAGAGCACGTGGTTAG | -0.17
TATTCCACGTGGGTTA | -0.04
CGGGGCACGTGGCTGG | -0.21
AGATGCACGTGAAGTA | 0.34
GTCGACACGTGGTGGG | 0.05
CTTGTCACGTGTTTTA | 0.2
TGACTCACGTGTGGGC | 0.27
